Measured values as given in the supplement of paper PMC12217912.
The list shows a part of the results. The full chains were built here from the parent and the listed change. Inactive controls read about 0.05.

B1: TEV protease; numbered along this chain (parent)
chain: MGESLFKGPRDYNPISSSICHLTNESDGHTTSLYGIGFGPFIITNKHLFRRNNGTLVVQSLHGVFKVKDTTTLQQHLVDGRDMIIIRMPKDFPPFPQKLKFREPQREERICLVTTNFQTKSMSSMVSDTSCTFPSGDGIFWKHWIQTKDGQCGSPLVSTRDGFIVGIHSASNFTNTNNYFTSVPKNFMELLTNQEAQQWVSGWRLNADSVLWGGHKVFMVKPEEPFQPVKEATQL

Variants of: B1
Assay: raw area under fraction-flipped curve 0-4 h after induction (AUC4h, not background-subtracted), DNA-recorder readout of cleavage of the substrate (dimensionless); higher = more cleavage of the substrate by the protease variant
Conditions: temperature: 34 °C; time window: 0-4 h after rhamnose induction
Description: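 In vivo DNA recorder in E. coli TOP10(DE3) ΔrhaA at 34 °C. Each TEVp single-site mutant (parent TEVp 0) is paired with a single-site variant of the 7-mer TEVs (canonical ENLYFQ|S). The substrate sits between flexible linkers in a Bxb1-sfGFP-TEVs-SsrA fusion, so cleavage stabilises Bxb1 and speeds flipping of a recombination array, read by NGS. The value is the raw area under the fraction-flipped curve over 0-4 h after rhamnose induction (AUC4h), with ≥20 reads per time point. It is not background-subtracted; inactive controls average about 0.047.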
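Also: Bxb1 expression induced with 0.2% (w/v) L-rhamnose at OD600 near 0.5, cultures sampled hourly, flipped fraction per protease–substrate barcode pair counted by paired-end Illumina sequencing.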

Row | Variant | area with substrate ENLYFQA | area with substrate ENLYFQC | area with substrate ENLYFQD | area with substrate ENLYFQG | area with substrate ENLYFQI | area with substrate ENLYFQL | area with substrate ENLYFQM | area with substrate ENLYFQN | area with substrate ENLYFQP | area with substrate ENLYFQR | area with substrate ENLYFQS | area with substrate ENLYFQT | area with substrate ENLYFQV | area with substrate ENLYFQW | area with substrate ENLYFQY | area with substrate ENLYFQE | area with substrate ENLYFQF | area with substrate ENLYFQH | area with substrate ENLYFQK | area with substrate ENLYFQQ
1 | H29C | 0.126 | 0.123 | 0.0924 | 0.119 | 0.068 | 0.044 | 0.0903 | 0.07 | 0.0714 | 0.0646 | 0.111 | 0.0833 | 0.0629 | 0.0615 | 0.0972 | – | – | – | – | –
2 | H29N | 0.0873 | 0.0908 | – | 0.0896 | 0.06 | – | 0.0884 | 0.0663 | 0.0422 | 0.069 | 0.0974 | 0.064 | 0.0582 | 0.0621 | 0.0857 | 0.052 | 0.14 | 0.0806 | 0.0503 | –
3 | T23Y | 0.0978 | 0.0977 | – | 0.0919 | 0.0592 | 0.0619 | 0.0988 | – | – | 0.0633 | 0.0893 | 0.0673 | – | 0.0664 | 0.068 | – | 0.0809 | 0.0693 | 0.0689 | –
4 | I42A | 0.0573 | – | 0.0559 | – | 0.0322 | – | – | 0.051 | 0.0194 | 0.0528 | 0.0684 | 0.0458 | – | 0.0501 | 0.0473 | – | – | 0.0703 | 0.0525 | –
5 | I42F | 0.0711 | 0.0783 | – | 0.083 | 0.042 | 0.0575 | – | 0.06 | 0.0533 | 0.103 | 0.0704 | 0.0634 | – | 0.0541 | 0.0688 | 0.0731 | – | 0.0576 | 0.0374 | –
6 | I42L | 0.0767 | 0.116 | – | 0.0867 | 0.04 | 0.0742 | – | 0.0769 | – | – | 0.104 | 0.0584 | 0.0761 | – | – | – | 0.0606 | – | – | –
7 | I42R | 0.145 | 0.0474 | 0.0248 | 0.0309 | 0.0323 | 0.0462 | 0.0374 | 0.0285 | – | 0.046 | 0.0461 | 0.0506 | 0.0514 | – | 0.0399 | 0.0496 | 0.0427 | 0.0387 | 0.0484 | 0.0359
8 | G39I | 0.0507 | 0.0387 | 0.0467 | 0.0464 | – | 0.0371 | 0.0414 | – | 0.0505 | 0.0304 | 0.0459 | 0.0431 | – | 0.0444 | 0.0354 | – | – | 0.0432 | 0.0503 | –
9 | G39E | 0.0519 | 0.0499 | 0.0435 | 0.057 | 0.0438 | 0.0209 | 0.0442 | 0.0348 | 0.0392 | – | 0.0456 | 0.0238 | – | 0.0497 | 0.0346 | – | – | – | 0.0445 | –
10 | G39M | 0.0432 | 0.0371 | 0.0419 | 0.0415 | 0.0417 | 0.037 | 0.0484 | 0.0444 | 0.0388 | 0.0335 | 0.043 | 0.0396 | 0.0379 | 0.0312 | – | 0.0631 | – | 0.0403 | 0.042 | 0.03
11 | G39R | 0.0367 | 0.0456 | – | 0.0482 | 0.0472 | 0.0416 | – | – | – | 0.0466 | 0.0477 | 0.0417 | 0.0594 | 0.0423 | 0.0602 | – | – | – | 0.045 | –
12 | H21A | 0.0931 | 0.118 | 0.0712 | 0.119 | 0.0539 | 0.0602 | 0.0926 | 0.0689 | 0.0572 | – | 0.0983 | 0.0552 | – | 0.0658 | 0.0613 | – | 0.0803 | 0.0822 | 0.058 | 0.0746
13 | H21Q | 0.101 | 0.119 | 0.07 | 0.1 | 0.057 | 0.06 | 0.0828 | 0.0722 | 0.0579 | 0.0615 | 0.1 | 0.0656 | – | 0.0559 | 0.0961 | – | 0.0642 | 0.0809 | 0.0591 | –
14 | H21C | 0.0894 | – | 0.0378 | 0.105 | – | – | – | 0.0752 | 0.0509 | 0.0557 | 0.0997 | 0.0744 | 0.0635 | 0.0631 | 0.065 | – | 0.0532 | – | – | 0.0753
15 | F38Y | 0.101 | – | – | 0.0947 | 0.0593 | 0.0599 | 0.0688 | 0.087 | – | 0.0546 | 0.103 | 0.0708 | 0.0516 | – | 0.0839 | – | 0.0651 | – | – | 0.0799
16 | F38W | 0.0799 | 0.108 | 0.0693 | 0.101 | 0.0636 | 0.0616 | 0.0891 | 0.0801 | 0.0752 | 0.0584 | 0.112 | 0.0686 | 0.0531 | 0.0544 | 0.0866 | 0.0629 | – | 0.096 | 0.0557 | –
17 | D27C | 0.0931 | 0.133 | 0.065 | 0.0882 | 0.0533 | 0.0567 | 0.0808 | 0.0627 | 0.0602 | 0.0409 | 0.0974 | 0.041 | 0.0662 | 0.055 | – | – | – | 0.0742 | 0.0694 | –
18 | I36H | 0.0506 | 0.0532 | 0.0495 | 0.0277 | 0.0569 | 0.0396 | 0.0421 | 0.0284 | 0.0498 | 0.0463 | 0.0465 | – | – | – | 0.051 | – | 0.0402 | 0.042 | 0.0447 | –
19 | I36Y | 0.0398 | 0.0757 | – | 0.053 | 0.0589 | – | – | 0.0421 | – | 0.0473 | 0.0524 | 0.0523 | 0.0539 | 0.0462 | – | – | – | 0.0521 | 0.0482 | –
20 | I36W | 0.0535 | – | 0.0995 | 0.0621 | – | 0.0597 | 0.0525 | 0.0481 | 0.0597 | 0.0445 | 0.0565 | 0.0556 | – | – | – | – | 0.0445 | 0.0526 | 0.0432 | –
21 | G37T | 0.0763 | 0.0919 | – | 0.0631 | – | – | 0.0743 | 0.055 | – | 0.0406 | 0.082 | 0.0408 | 0.0455 | 0.0543 | 0.0763 | – | 0.0605 | 0.0535 | 0.0448 | 0.0328
22 | G37W | 0.0681 | 0.0838 | 0.0507 | 0.131 | 0.0543 | 0.0435 | 0.0694 | 0.0626 | 0.0458 | 0.0516 | 0.0789 | 0.0595 | – | 0.061 | 0.0562 | 0.047 | 0.0711 | – | 0.0409 | 0.0568
23 | G37I | 0.0767 | 0.0799 | – | 0.0786 | – | – | 0.069 | 0.0565 | – | 0.0609 | 0.0802 | – | 0.0481 | 0.0531 | 0.072 | 0.07 | 0.0912 | – | 0.0633 | –
24 | I19P | 0.049 | – | 0.0459 | 0.0532 | 0.0311 | 0.0439 | 0.0514 | – | 0.0421 | 0.045 | 0.0485 | 0.0464 | 0.0434 | 0.0436 | 0.0401 | – | 0.0487 | 0.039 | 0.0432 | 0.0438
